Assay results from PubChem BioAssay (NCATS).
This is one part of the list. These are further read-outs of the screen, such as a control signal, another cell line or another target. No call is given for them. Potencies come from curve fits of mixed quality, noted in brackets.

Assay: qHTS drug screen for cell cycle checkpoint inhibitors in PARPi-resistant BRCA-mutant ovarian cancer cell lines. (AID 1963452)
Settings: PEO1/OlaR viability, CellTiter-Glo luminescence, 96 h
How it was run: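 PEO1, PEO4 and PEO1/OlaR ovarian cancer cells, 600 per well, exposed 96 h at 37C to a dilution series. Viability read by CellTiter-Glo luminescence, normalized to DMSO and empty wells; activity summarized as Z-AUC.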

[1] = measured here: PEO1 parental viability
Tags describe the fitted curve by direction and shape.

In the case of `COc1cc(-c2cn(C)c(=O)c3cnccc23)c(OC)cc1CN(C)C`, the AC50 [1] is reported as 11 µM [falling, partial curve] and the AC50 (measured here: PEO4 viability) is reported as 12.3 µM [falling, partial curve].

With `CN(C)C/C=C/C(=O)Nc1cc2c(Nc3ccc(F)c(Cl)c3)ncnc2cc1O[C@H]1CCOC1` the AC50 [1] was 4.9 µM [falling, partial curve, poor fit] and the AC50 (measured here: PEO4 viability) was 3.09 µM [falling, full curve].

In the case of `CC(/C=C/C(=O)NO)=C\[C@@H](C)C(=O)c1ccc(N(C)C)cc1`, the AC50 [1] is reported as 0.776 µM [falling, full curve] and the AC50 (measured here: PEO4 viability) is reported as 0.309 µM [falling, full curve].

In the case of `CC(=O)c1ccc2c(c1)c1cc(C(C)=O)ccc1n2CCNC(C)C`, the AC50 [1] is reported as 0.871 µM [falling, full curve] and the AC50 (measured here: PEO4 viability) is reported as 1.1 µM [falling, full curve].

For `CNC(=O)c1ccccc1Sc1ccc2c(/C=C/c3ccccn3)n[nH]c2c1`, the AC50 [1] was 2.19 µM [falling, full curve] and the AC50 (measured here: PEO4 viability) was 1.23 µM [falling, full curve].

With `Cc1ccc(Nc2nnc(Cc3ccncc3)c3ccccc23)cc1Br` the AC50 [1] was 7.76 µM [falling, partial curve, poor fit] and the AC50 (measured here: PEO4 viability) was 2.75 µM [falling, partial curve].

In the case of `COc1cc(S(C)(=O)=O)ccc1Nc1nc2ccc(-c3ccc(NC(=O)[C@H](C)c4ccc(F)cc4)cc3)cn2n1`, the AC50 [1] is reported as 0.049 µM [falling, full curve, poor fit] and the AC50 (measured here: PEO4 viability) is reported as 0.11 µM [falling, full curve].
